Experimental data published in the supplement of paper PMC7125110.
± gives the standard error. This sample is rich in variants without activity.

B1: glmS ribozyme (parent)
chain: AUAAAAGCGCCAGAACUACAGAAAUGUAGUUGACGAGGAGGAGGUUUAUCGAAUUUUCGGCGGAUGCCUCCAAA

Key:
Details in all cases: with glucosamine-6-phosphate
[1] = variants of: B1; test: self-cleavage kobs at 40 uM GlcN6P; higher = faster cleavage; RNA array
Method in brief: (§1)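 Barcoded ribozyme variants were transcribed in situ on sequenced MiSeq chips by E. coli RNA polymerase. At 37 °C, a hybridised Cy3 probe tracked them while glucosamine-6-phosphate (40 μM to 10 mM) in HEPES/KCl/Mg(OAc)2 buffer flowed in and tiles were imaged over ~14 h. Per-tile medians of signals normalised to baseline and to non-cleaving reference variants were fit to one- or two-exponential decays, giving kobs. kcat and KM came from weighted Michaelis–Menten fits across concentrations.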

[2] = variants of: B1; test: self-cleavage kobs at 640 uM GlcN6P; higher = faster cleavage; RNA array
Method in brief: as §1

[3] = variants of: B1; test: self-cleavage kobs at 2500 uM GlcN6P; higher = faster cleavage; RNA array
Method in brief: as §1

[4] = variants of: B1; test: self-cleavage kobs at 160 uM GlcN6P; higher = faster cleavage; RNA array
Method in brief: as §1

[5] = variants of: B1; test: self-cleavage kobs at 10000 uM GlcN6P; higher = faster cleavage; RNA array
Method in brief: as §1

## A6G A53G C58U
[1]
  self-cleavage kobs at 40 uM GlcN6P: < 1e-05 s⁻¹
[2]
  self-cleavage kobs at 640 uM GlcN6P: < 1e-05 s⁻¹
[3]
  self-cleavage kobs at 2500 uM GlcN6P: < 1e-05 s⁻¹

## A6G A64U
[1]
  self-cleavage kobs at 40 uM GlcN6P: < 1e-05 s⁻¹
[2]
  self-cleavage kobs at 640 uM GlcN6P: < 1e-05 s⁻¹
[4]
  self-cleavage kobs at 160 uM GlcN6P: < 1e-05 s⁻¹
[5]
  self-cleavage kobs at 10000 uM GlcN6P: < 1e-05 s⁻¹

## A6G C16G
[1]
  self-cleavage kobs at 40 uM GlcN6P: < 1e-05 s⁻¹
[2]
  self-cleavage kobs at 640 uM GlcN6P: < 1e-05 s⁻¹
[4]
  self-cleavage kobs at 160 uM GlcN6P: < 1e-05 s⁻¹
[5]
  self-cleavage kobs at 10000 uM GlcN6P: 3.38e-05 ± 8.1e-06 s⁻¹

## A6G C34G G59U
[1]
  self-cleavage kobs at 40 uM GlcN6P: < 1e-05 s⁻¹

## A6G C50U
[1]
  self-cleavage kobs at 40 uM GlcN6P: < 1e-05 s⁻¹
[2]
  self-cleavage kobs at 640 uM GlcN6P: < 1e-05 s⁻¹
[4]
  self-cleavage kobs at 160 uM GlcN6P: < 1e-05 s⁻¹
[5]
  self-cleavage kobs at 10000 uM GlcN6P: < 1e-05 s⁻¹

## A6G C68G
[1]
  self-cleavage kobs at 40 uM GlcN6P: < 1e-05 s⁻¹
[2]
  self-cleavage kobs at 640 uM GlcN6P: < 1e-05 s⁻¹

## A6G G7A
[1]
  self-cleavage kobs at 40 uM GlcN6P: < 1e-05 s⁻¹
[2]
  self-cleavage kobs at 640 uM GlcN6P: < 1e-05 s⁻¹
[4]
  self-cleavage kobs at 160 uM GlcN6P: < 1e-05 s⁻¹
[3]
  self-cleavage kobs at 2500 uM GlcN6P: < 1e-05 s⁻¹
[5]
  self-cleavage kobs at 10000 uM GlcN6P: < 1e-05 s⁻¹

## A6G G7U C61G
[1]
  self-cleavage kobs at 40 uM GlcN6P: < 1e-05 s⁻¹

## A6G G13A C16G G32C C61U C71G
[1]
  self-cleavage kobs at 40 uM GlcN6P: < 1e-05 s⁻¹
[3]
  self-cleavage kobs at 2500 uM GlcN6P: < 1e-05 s⁻¹

## A6G G13C G32U G41U G63U
[1]
  self-cleavage kobs at 40 uM GlcN6P: < 1e-05 s⁻¹

## A6G G13U U69C
[1]
  self-cleavage kobs at 40 uM GlcN6P: < 1e-05 s⁻¹

## A6G G29C
[1]
  self-cleavage kobs at 40 uM GlcN6P: < 1e-05 s⁻¹
[2]
  self-cleavage kobs at 640 uM GlcN6P: < 1e-05 s⁻¹
[4]
  self-cleavage kobs at 160 uM GlcN6P: < 1e-05 s⁻¹
[3]
  self-cleavage kobs at 2500 uM GlcN6P: < 1e-05 s⁻¹

## A6G G35A C67U U69A
[1]
  self-cleavage kobs at 40 uM GlcN6P: < 1e-05 s⁻¹
[2]
  self-cleavage kobs at 640 uM GlcN6P: < 1e-05 s⁻¹
[4]
  self-cleavage kobs at 160 uM GlcN6P: < 1e-05 s⁻¹
[3]
  self-cleavage kobs at 2500 uM GlcN6P: < 1e-05 s⁻¹
[5]
  self-cleavage kobs at 10000 uM GlcN6P: < 1e-05 s⁻¹

## A6G G35C A39G G40A C61U C70A
[1]
  self-cleavage kobs at 40 uM GlcN6P: < 1e-05 s⁻¹

## A6G G37A
[1]
  self-cleavage kobs at 40 uM GlcN6P: < 1e-05 s⁻¹
[4]
  self-cleavage kobs at 160 uM GlcN6P: < 1e-05 s⁻¹

## A6G G38A
[1]
  self-cleavage kobs at 40 uM GlcN6P: < 1e-05 s⁻¹
[3]
  self-cleavage kobs at 2500 uM GlcN6P: < 1e-05 s⁻¹
[5]
  self-cleavage kobs at 10000 uM GlcN6P: < 1e-05 s⁻¹

## A6G G38C C71G
[1]
  self-cleavage kobs at 40 uM GlcN6P: < 1e-05 s⁻¹
[3]
  self-cleavage kobs at 2500 uM GlcN6P: < 1e-05 s⁻¹

## A6G G38U C68U
[1]
  self-cleavage kobs at 40 uM GlcN6P: < 1e-05 s⁻¹
[3]
  self-cleavage kobs at 2500 uM GlcN6P: < 1e-05 s⁻¹

## A6G G40A
[1]
  self-cleavage kobs at 40 uM GlcN6P: < 1e-05 s⁻¹
[4]
  self-cleavage kobs at 160 uM GlcN6P: < 1e-05 s⁻¹

## A6G G44U G62U G63A U69A
[1]
  self-cleavage kobs at 40 uM GlcN6P: < 1e-05 s⁻¹
[2]
  self-cleavage kobs at 640 uM GlcN6P: < 1e-05 s⁻¹
[4]
  self-cleavage kobs at 160 uM GlcN6P: < 1e-05 s⁻¹
[3]
  self-cleavage kobs at 2500 uM GlcN6P: < 1e-05 s⁻¹
[5]
  self-cleavage kobs at 10000 uM GlcN6P: < 1e-05 s⁻¹

## A6G G51C G59U
[1]
  self-cleavage kobs at 40 uM GlcN6P: < 1e-05 s⁻¹

## A6G G51U
[1]
  self-cleavage kobs at 40 uM GlcN6P: < 1e-05 s⁻¹
[2]
  self-cleavage kobs at 640 uM GlcN6P: < 1e-05 s⁻¹
[4]
  self-cleavage kobs at 160 uM GlcN6P: < 1e-05 s⁻¹
[3]
  self-cleavage kobs at 2500 uM GlcN6P: < 1e-05 s⁻¹
[5]
  self-cleavage kobs at 10000 uM GlcN6P: < 1e-05 s⁻¹

## A6G G51U U65A
[1]
  self-cleavage kobs at 40 uM GlcN6P: < 1e-05 s⁻¹
[5]
  self-cleavage kobs at 10000 uM GlcN6P: < 1e-05 s⁻¹

## A6G G59U
[1]
  self-cleavage kobs at 40 uM GlcN6P: < 1e-05 s⁻¹
[2]
  self-cleavage kobs at 640 uM GlcN6P: < 1e-05 s⁻¹
[4]
  self-cleavage kobs at 160 uM GlcN6P: < 1e-05 s⁻¹
[3]
  self-cleavage kobs at 2500 uM GlcN6P: < 1e-05 s⁻¹
[5]
  self-cleavage kobs at 10000 uM GlcN6P: < 1e-05 s⁻¹

## A6G U30A
[1]
  self-cleavage kobs at 40 uM GlcN6P: < 1e-05 s⁻¹

## A6G U31C U55G
[1]
  self-cleavage kobs at 40 uM GlcN6P: < 1e-05 s⁻¹
[3]
  self-cleavage kobs at 2500 uM GlcN6P: 4.23e-05 ± 1.7e-05 s⁻¹
[5]
  self-cleavage kobs at 10000 uM GlcN6P: 5.16e-05 ± 1.9e-05 s⁻¹

## A6G U46C
[1]
  self-cleavage kobs at 40 uM GlcN6P: < 1e-05 s⁻¹
[2]
  self-cleavage kobs at 640 uM GlcN6P: < 1e-05 s⁻¹
[4]
  self-cleavage kobs at 160 uM GlcN6P: < 1e-05 s⁻¹

## A6G U47A U49A G63U
[1]
  self-cleavage kobs at 40 uM GlcN6P: < 1e-05 s⁻¹
[5]
  self-cleavage kobs at 10000 uM GlcN6P: < 1e-05 s⁻¹

## A6U A15G U31G G41A
[1]
  self-cleavage kobs at 40 uM GlcN6P: < 1e-05 s⁻¹
[5]
  self-cleavage kobs at 10000 uM GlcN6P: < 1e-05 s⁻¹

## A6U A23C U30G
[1]
  self-cleavage kobs at 40 uM GlcN6P: < 1e-05 s⁻¹

## A6U A33G
[1]
  self-cleavage kobs at 40 uM GlcN6P: < 1e-05 s⁻¹

## A6U A33G U45C
[1]
  self-cleavage kobs at 40 uM GlcN6P: < 1e-05 s⁻¹
[3]
  self-cleavage kobs at 2500 uM GlcN6P: < 1e-05 s⁻¹
[5]
  self-cleavage kobs at 10000 uM GlcN6P: < 1e-05 s⁻¹

## A6U A33U
[1]
  self-cleavage kobs at 40 uM GlcN6P: < 1e-05 s⁻¹
[2]
  self-cleavage kobs at 640 uM GlcN6P: < 1e-05 s⁻¹
[3]
  self-cleavage kobs at 2500 uM GlcN6P: < 1e-05 s⁻¹
[5]
  self-cleavage kobs at 10000 uM GlcN6P: < 1e-05 s⁻¹

## A6U A33U U49C G59U
[1]
  self-cleavage kobs at 40 uM GlcN6P: < 1e-05 s⁻¹
[2]
  self-cleavage kobs at 640 uM GlcN6P: < 1e-05 s⁻¹
[3]
  self-cleavage kobs at 2500 uM GlcN6P: < 1e-05 s⁻¹

## A6U A53G G62A
[1]
  self-cleavage kobs at 40 uM GlcN6P: < 1e-05 s⁻¹

## A6U C10U A15G G35A
[1]
  self-cleavage kobs at 40 uM GlcN6P: < 1e-05 s⁻¹
[5]
  self-cleavage kobs at 10000 uM GlcN6P: < 1e-05 s⁻¹

## A6U C11G A14C
[1]
  self-cleavage kobs at 40 uM GlcN6P: < 1e-05 s⁻¹
[2]
  self-cleavage kobs at 640 uM GlcN6P: < 1e-05 s⁻¹
[4]
  self-cleavage kobs at 160 uM GlcN6P: < 1e-05 s⁻¹
[5]
  self-cleavage kobs at 10000 uM GlcN6P: < 1e-05 s⁻¹

## A6U C58U
[1]
  self-cleavage kobs at 40 uM GlcN6P: < 1e-05 s⁻¹
[2]
  self-cleavage kobs at 640 uM GlcN6P: < 1e-05 s⁻¹
[4]
  self-cleavage kobs at 160 uM GlcN6P: < 1e-05 s⁻¹
[3]
  self-cleavage kobs at 2500 uM GlcN6P: < 1e-05 s⁻¹
[5]
  self-cleavage kobs at 10000 uM GlcN6P: < 1e-05 s⁻¹

## A6U G29U A39U G43U C61A C67U
[1]
  self-cleavage kobs at 40 uM GlcN6P: < 1e-05 s⁻¹
[5]
  self-cleavage kobs at 10000 uM GlcN6P: < 1e-05 s⁻¹

## A6U G32C G59A
[1]
  self-cleavage kobs at 40 uM GlcN6P: < 1e-05 s⁻¹
[5]
  self-cleavage kobs at 10000 uM GlcN6P: < 1e-05 s⁻¹

## A6U G40U
[1]
  self-cleavage kobs at 40 uM GlcN6P: < 1e-05 s⁻¹

## A6U G43U G59U
[1]
  self-cleavage kobs at 40 uM GlcN6P: < 1e-05 s⁻¹

## A6U G60C
[1]
  self-cleavage kobs at 40 uM GlcN6P: < 1e-05 s⁻¹
[2]
  self-cleavage kobs at 640 uM GlcN6P: < 1e-05 s⁻¹
[5]
  self-cleavage kobs at 10000 uM GlcN6P: < 1e-05 s⁻¹

## A6U G62U
[1]
  self-cleavage kobs at 40 uM GlcN6P: < 1e-05 s⁻¹
[2]
  self-cleavage kobs at 640 uM GlcN6P: < 1e-05 s⁻¹
[4]
  self-cleavage kobs at 160 uM GlcN6P: < 1e-05 s⁻¹
[5]
  self-cleavage kobs at 10000 uM GlcN6P: < 1e-05 s⁻¹

## A6U U45G G51C
[1]
  self-cleavage kobs at 40 uM GlcN6P: < 1e-05 s⁻¹
[3]
  self-cleavage kobs at 2500 uM GlcN6P: < 1e-05 s⁻¹

## A6U U46G C58A
[1]
  self-cleavage kobs at 40 uM GlcN6P: < 1e-05 s⁻¹

## G7A A12G
[1]
  self-cleavage kobs at 40 uM GlcN6P: < 1e-05 s⁻¹
[2]
  self-cleavage kobs at 640 uM GlcN6P: < 1e-05 s⁻¹
[3]
  self-cleavage kobs at 2500 uM GlcN6P: < 1e-05 s⁻¹
[5]
  self-cleavage kobs at 10000 uM GlcN6P: < 1e-05 s⁻¹

## G7A A15U G32C
[1]
  self-cleavage kobs at 40 uM GlcN6P: < 1e-05 s⁻¹
[2]
  self-cleavage kobs at 640 uM GlcN6P: < 1e-05 s⁻¹

## G7A A39U U56C G59A
[1]
  self-cleavage kobs at 40 uM GlcN6P: < 1e-05 s⁻¹
[5]
  self-cleavage kobs at 10000 uM GlcN6P: < 1e-05 s⁻¹
